Consider four compounds from the supplement of paper PMC4604168 (melanoma cell lines).

The other results are listed elsewhere or left out. Many values rest on one well or one pass, so single values are uncertain.

Experiment in all cases: cell count relative to DMSO control; melanoma cells; higher = more viable cells
What all share (settings): library dose: low library concentration; 72 h

Test [1] relates to WM115.
Test [2] has as its system WM1716.
The test system of test [3] is WM1745.
The subject of test [4] is WM3526.
Test [5] deals with WM3619.
Test [6] concerns WM451Lu.
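Note: cell number obtained by counting DAPI-stained nuclei in high-throughput microscope images with image analysis software, screen run in 1,536-well plates.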

Regarding `NC(=O)Nc1cc(-c2cccc(F)c2)sc1C(=O)N[C@H]1CCCNC1` + Oc1cc(-c2nc(-c3ccccc3)[nH]c2-c2ccncc2)ccc1Cl [L779450] (first compound 0.02 µM, partner dose 0.2 µM), the cell count in test [1] was determined as 77%; in test [2], 94.6%; in test [3] it was 97%; in test [4] it was 61.6%; in test [5] it was 60.8%; in test [6] it was 137%.
`C=CCn1c(=O)c2cnc(Nc3ccc(N4CCN(C)CC4)cc3)nc2n1-c1cccc(C(C)(C)O)n1` + CCc1ccc(CCOc2ccc(CC3SC(=O)NC3=O)cc2)nc1 [pioglitazone] (first compound 0.02 µM, partner dose 2 µM): the cell count in test [1] is 80.7%; in test [2], 70.4%; in test [3] it was 57.4%; in test [4] it was 92.8%; in test [5], 70.7%; in test [6], 102%.
As to `Cc1nc(Nc2ncc(C(=O)Nc3c(C)cccc3Cl)s2)cc(N2CCN(CCO)CC2)n1` [dasatanib] + C=CCn1c(=O)c2cnc(Nc3ccc(N4CCN(C)CC4)cc3)nc2n1-c1cccc(C(C)(C)O)n1 [MK1775] (first compound 0.004 µM, partner dose 0.02 µM), the cell count in test [1] was found to be 69.8%; in test [2] it was 67%; in test [3], 53.1%; in test [4] it was 102%; in test [5], 80%; in test [6] it was 66.8%.
As to `CO[C@@H]1[C@H](N(C)C(=O)c2ccccc2)C[C@H]2O[C@]1(C)n1c3ccccc3c3c4c(c5c6ccccc6n2c5c31)C(=O)NC4` [Midostaurin] + Oc1cc(-c2nc(-c3ccccc3)[nH]c2-c2ccncc2)ccc1Cl [L779450] (first compound 0.08 µM, partner dose 0.2 µM), the cell count in test [1] is 69.2%; in test [2], 99%; in test [3], 78.2%; in test [4], 70.8%; in test [5], 77.2%; in test [6] it was 96.5%.
